Out of some 310,000 compounds screened, about 18,000 (5.8%) were called active. The shares of active, inactive and inconclusive entries below differ from those in the screen. The call rests on the fitted dose curve; in most records, active means well fitted inhibition curve with a large enough effect; inconclusive means small, poorly fitted or top-dose-only effect, or another doubt; inactive means no such curve, though single readings can be large or run the other way. No potency is given beside an inconclusive call; the fits are too rough.
Assay: Primary qHTS for delayed death inhibitors of the malarial parasite plastid, 48 hour incubation
Details: P. falciparum luciferase growth in erythrocytes; series mostly up to 28.7 µM; activity change, negative = inhibition: at the top concentration
In short: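 Growth was read as firefly luciferase luminescence after a 48 h, 37 C, 5% CO2 exposure of compounds to reporter-bearing P. falciparum cultures (0.1% parasitemia, 2% hematocrit final) in Albumax-supplemented RPMI 1640.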
In the case of COc1cc(C)c(CN2CCN(S(=O)(=O)c3ccc(Cl)s3)CC2)cc1OC, the Potency is reported as inconclusive [inhibitor, single point]. For Cc1ccc(C)c(S(=O)(=O)N2CCN(C(=O)CCC(=O)c3cc(C)sc3C)CC2)c1, the Potency was inconclusive [inhibitor, single point]. For Cc1csc(NC(=O)CCc2c(C)nc3cc(-c4cccc(F)c4)nn3c2C)n1, the Potency was inconclusive [inhibitor, single point]. With C/C(=N\Nc1nc2ccccc2[nH]1)c1ccc(N2CCOCC2)cc1 the Potency was active: 4.15 µM. For CCOc1ccc(C(=O)N[C@H](C(=O)Nc2cccc(S(=O)(=O)N3CCOCC3)c2)C(C)C)cc1, the Potency was inconclusive [inhibitor, single point]. In the case of Cc1[nH]c2ccc(C(=O)NCCCN(C)C3CCCCC3)cc2c1C, the Potency is reported as inconclusive [inhibitor, single point]. For CCOC(=O)C1CCN(c2nnc(N3CCCC3=O)s2)CC1, the “activity change, negative = inhibition” value was inactive: 57.6%. With Cc1[nH]c2ccccc2c1C(=O)CSc1nc2ccccc2c(=O)n1CCCN1CCOCC1 the Potency was inconclusive [inhibitor, single point]. With Cc1ccc2nc(SCC(=O)NCCc3ccccc3)nc(=O)n2c1 the Potency was inconclusive [inhibitor, single point]. For Cc1ccccc1C(=O)NC1CCN(CC(=O)NCc2ccc(F)cc2)CC1, the “activity change, negative = inhibition” value was inactive: -19.2%. With COC(=O)C1=C(CN2CCSCC2)NC(=O)NC1c1cc(C)ccc1C (stereo not drawn) the Potency was inconclusive [inhibitor, single point]. For O=C(CSc1nc2ccccc2o1)Nc1ccc(Cl)cc1, the “activity change, negative = inhibition” value was inactive: 62.2%. For COc1ccc(C2C(C(=O)NCc3ccccn3)c3cc(OC)c(OC)cc3C(=O)N2C)cc1 (stereo not drawn), the Potency was inconclusive [inhibitor, single point]. In the case of CC(C)(C)n1nc2c(c1NC(=O)Cc1ccc([N+](=O)[O-])cc1)CS(=O)(=O)C2, the Potency is reported as inconclusive [inhibitor, single point]. With Cc1c(Cl)cccc1NC(=O)c1ccc(OCC(=O)NCc2ccccc2)cc1 the “activity change, negative = inhibition” value was inactive: -15.8%. In the case of COC(=O)c1ccccc1NC(=S)N(Cc1ccc2c(c1)OCO2)Cc1cc2cccc(C)c2[nH]c1=O, the Potency is reported as inconclusive [inhibitor, partial curve, poor fit]. With CCOC(=O)c1cc(NC(=O)Nc2nc3ccccc3s2)c(C)nc1C the “activity change, negative = inhibition” value was inactive: 16.7%. In the case of Cc1ccc(-n2cc(CNCC3CC(=O)N(C4CC4)C3)c(-c3cccc(C)c3)n2)cc1 (stereo not drawn), the Potency is reported as inconclusive [inhibitor, full curve, poor fit]. In the case of CCc1ccc(OCc2cnc(Cl)s2)cc1, the “activity change, negative = inhibition” value is reported as inactive: 17%. In the case of Cc1ccc(CCNC(=O)C2CCN(c3nn4c(=O)cc(C)nc4s3)CC2)cc1, the Potency is reported as inconclusive [inhibitor, single point]. For COCCNC(=O)c1c(N)sc2c1CCCC2, the Potency was active: 9.28 µM. With O=C(Nc1ccc(Cl)c(Cl)c1)O/N=C/c1ccncc1 the Potency was inconclusive [inhibitor, single point]. In the case of O=C(CN1CCCC1)OCCCc1ccccc1, the “activity change, negative = inhibition” value is reported as inactive: -0.873%. In the case of O=C1NC2(Nc3ccccc31)C(=O)Nc1ccccc12 (stereo not drawn), the Potency is reported as inconclusive [inhibitor, single point]. With CCNS(=O)(=O)c1ccc(CCC(=O)N2CCCC2)cc1 the Potency was inconclusive [inhibitor, full curve, poor fit]. In the case of COc1ccc(/C=N/N=C2/NC(=O)C(c3ccccc3)S2)c(OC)c1 (stereo not drawn), the Potency is reported as inconclusive [inhibitor, partial curve]. In the case of COc1ccccc1CCC(=O)N1CCN(S(=O)(=O)c2cc(C(F)(F)F)ccc2Cl)CC1, the Potency is reported as inconclusive [inhibitor, single point]. With COc1ccc([C@@H]2[C@@H]3C(=O)N(C(C)(C)C)C(=O)[C@@H]3[C@]3(Cc4ccc(Cl)cc4)C(=O)N(c4ccc(C)cc4)C(=O)N23)cc1 the Potency was active: 13.1 µM. For O=C(CSc1ccccc1)Nc1cccc(S(=O)(=O)N2CCCCC2)c1, the Potency was inconclusive [inhibitor, single point]. For Cc1ccc(NC(=O)NC2CCN(S(=O)(=O)c3ccc(F)cc3)CC2)cc1, the Potency was inconclusive [inhibitor, partial curve, poor fit]. In the case of COc1ccc(C(=O)N2CCc3cc(OC)c(OC)cc3C2c2ccc(OC)c(OC)c2)cc1OC (stereo not drawn), the Potency is reported as active: 13.1 µM. With COc1ccccc1NC(=O)Cn1cnc2c(oc3nc4c(cc32)CCCC4)c1=O the Potency was inconclusive [inhibitor, partial curve, poor fit]. In the case of CCn1ccnc1CN(C)Cc1cn(-c2cccc(C)c2)nc1-c1cccc(F)c1, the Potency is reported as inconclusive [inhibitor, partial curve]. In the case of Cc1cccc(OCC(=O)N2CCN(C(=O)CCC3CCCC3)CC2)c1, the Potency is reported as inconclusive [inhibitor, partial curve, poor fit]. For CC1CC(C)CN(C(=S)SCc2nc(N)nc(Nc3ccccc3)n2)C1 (stereo not drawn), the Potency was inconclusive [inhibitor, partial curve, poor fit]. With O=C(C1=C[C@@H](c2ccccc2)C[C@@H](OCc2ccc(CO)cc2)O1)N1CCN(Cc2ccc3c(c2)OCO3)CC1 the Potency was inconclusive [inhibitor, full curve, poor fit]. For COc1ccc(C(=O)N2CCN(c3ccc(NC(=O)c4cccs4)cc3)CC2)cc1, the Potency was inconclusive [inhibitor, single point]. In the case of CC(=O)Nc1ccc2nc(NC(=O)c3ccc([N+](=O)[O-])o3)sc2c1, the Potency is reported as inconclusive [inhibitor, single point]. For NC(N)=N/N=C/c1ccc2cccc(OCc3ccccc3)c2n1, the Potency was inconclusive [inhibitor, full curve]. With CC(C)(C)OC(=O)C(C)(C)Sc1nnc(N)s1 the Potency was inconclusive [inhibitor, single point]. For COC(=O)[C@@]1(Cc2ccc(OC)cc2)[C@@H]2C(=CC(=O)[C@H]2CC(=O)C(=O)N2CCCC2)CN1C(=O)c1ccccc1, the Potency was active: 10.4 µM. For O=C(CCCc1ccccc1)Nc1ccnn1C1CCN(Cc2ccccc2)CC1, the Potency was inconclusive [inhibitor, partial curve, poor fit]. In the case of O=C(NC1CCCCC1)c1ccc(S(=O)(=O)NCc2ccco2)cc1, the “activity change, negative = inhibition” value is reported as inactive: -21.2%. For Cc1onc(-c2c(F)cccc2Cl)c1C(=O)NC(=S)Nc1c(C)n(C)n(-c2ccccc2)c1=O, the Potency was inconclusive [inhibitor, partial curve, poor fit]. For Cc1ccc(S(=O)(=O)N2CCC(C(=O)OC(C)C(=O)NC(N)=O)CC2)cc1C (stereo not drawn), the Potency was inconclusive [inhibitor, single point]. For O=C(Nc1ccc(C(F)(F)F)cc1)C1CCCCN1S(=O)(=O)c1ccccc1 (stereo not drawn), the Potency was inconclusive [inhibitor, single point]. For CCN(CC)c1nc(-c2ccccn2)nc(-c2ccccc2)c1C#N, the Potency was inconclusive [inhibitor, partial curve, poor fit]. With Cc1cccc(CCNC(=O)CCCOc2cc(=O)n(C)c3ccccc23)c1 the Potency was inconclusive [inhibitor, partial curve, poor fit]. In the case of CC(=O)Nc1ccc(N(C(=O)CNC(=O)c2ccco2)C(C(=O)NCc2ccco2)c2ccccc2)cc1 (stereo not drawn), the “activity change, negative = inhibition” value is reported as inactive: -6.35%. In the case of C=CCOC(=O)C1=C[C@H](C2CC2)[C@@H](CCCO)[C@H](OCC)O1, the “activity change, negative = inhibition” value is reported as inactive: -23.3%. With Cc1ccc(OCCCC(=O)NNC(=O)c2ccncc2)cc1 the “activity change, negative = inhibition” value was inactive: 5.11%. In the case of C=CCOc1ccccc1CN1CCC(CO)(CCOc2ccccc2)CC1, the Potency is reported as inconclusive [inhibitor, full curve]. With COc1ccc(NC(=O)C(=O)NNC(=O)c2cccs2)c(OC)c1 the “activity change, negative = inhibition” value was inactive: 13.2%. With Cc1ccc(NC(=S)NCC2CCN(C(C)c3ccccc3)C2)cc1C (stereo not drawn) the Potency was inconclusive [inhibitor, partial curve, poor fit]. For Cc1ccc(O)c(-c2cc(-c3ccc(F)cc3)no2)c1, the Potency was active: 10.4 µM. With CC(=O)NS(=O)(=O)c1ccc(NC(=O)c2ccc3c(c2)OCO3)cc1 the “activity change, negative = inhibition” value was inactive: 32.3%. In the case of Cc1n[nH]c(=O)nc1NCc1ccco1, the “activity change, negative = inhibition” value is reported as inactive: 6.68%. With Nc1ncc2c(n1)-c1ccccc1CC2 the Potency was active: 3.7 µM. In the case of CC(C)c1nn2c(=O)cc(CSc3ccccc3NC(=O)c3ccccc3F)nc2s1, the Potency is reported as inconclusive [inhibitor, full curve, poor fit]. For Cc1nc(-c2ccc([N+](=O)[O-])cc2)sc1C(=O)O, the “activity change, negative = inhibition” value was inactive: 95.5%. In the case of CNC(=S)SCCOc1ccc(C)cc1, the “activity change, negative = inhibition” value is reported as inactive: 4.6%. In the case of Cc1ccc(NS(=O)(=O)c2cccc(C(=O)NCCCN3CCCC3=O)c2)cc1, the Potency is reported as inconclusive [inhibitor, single point]. In the case of Oc1ccc(Br)cc1/C=N/N1CCN(Cc2ccccc2)CC1, the “activity change, negative = inhibition” value is reported as inactive: 19.5%. With CCc1ccccc1NC(=O)CSc1nc2ccccc2nc1N1CCOCC1 the Potency was inconclusive [inhibitor, full curve, poor fit]. With COc1ccccc1N1CCN(Cc2ccc(O)c3ncccc23)CC1 the Potency was active: 2.62 µM. For CCOC(=O)C1=C(C)NC(=S)NC1c1ccc(OCC(=O)N2CCCCCC2)c(OC)c1 (stereo not drawn), the “activity change, negative = inhibition” value was inactive: 0%. With COc1ccc(C2c3[nH]c4ccccc4c3C[C@H]3C(=O)N(c4ccccc4C(=O)N4CCC(C(=O)O)CC4)C(=O)N23)cc1 (stereo partly drawn) the Potency was active: 11.7 µM. For CCN(CC)CCCOC(=O)C(OC(C)C)(c1ccccc1)c1ccccc1, the Potency was inconclusive [inhibitor, single point].

— PubChem BioAssay AID504832 (National Center for Advancing Translational Sciences (NCATS), 2011)
On the % scale 0 is the no-effect control and ±100 the full control effect; potency means the concentration at half of the fitted maximal effect; tags describe the fitted curve by direction and shape.
